# According to PMC4336329 (PLoS ONE, 2015):
# Screen size: about 310,000 compounds; about 2,200 (0.71%) showed an effect of 50% or more. Effects have a minus sign here. The list shows a part of the results.
# Target: human ether-à-go-go-related gene (hERG) potassium channel (human, UniProt Q12809)
# Test: primary screen, population patch clamp on CHO cells stably expressing hERG
# Sequence of human ether-à-go-go-related gene (hERG) potassium channel (Q12809 whole entry, looked up): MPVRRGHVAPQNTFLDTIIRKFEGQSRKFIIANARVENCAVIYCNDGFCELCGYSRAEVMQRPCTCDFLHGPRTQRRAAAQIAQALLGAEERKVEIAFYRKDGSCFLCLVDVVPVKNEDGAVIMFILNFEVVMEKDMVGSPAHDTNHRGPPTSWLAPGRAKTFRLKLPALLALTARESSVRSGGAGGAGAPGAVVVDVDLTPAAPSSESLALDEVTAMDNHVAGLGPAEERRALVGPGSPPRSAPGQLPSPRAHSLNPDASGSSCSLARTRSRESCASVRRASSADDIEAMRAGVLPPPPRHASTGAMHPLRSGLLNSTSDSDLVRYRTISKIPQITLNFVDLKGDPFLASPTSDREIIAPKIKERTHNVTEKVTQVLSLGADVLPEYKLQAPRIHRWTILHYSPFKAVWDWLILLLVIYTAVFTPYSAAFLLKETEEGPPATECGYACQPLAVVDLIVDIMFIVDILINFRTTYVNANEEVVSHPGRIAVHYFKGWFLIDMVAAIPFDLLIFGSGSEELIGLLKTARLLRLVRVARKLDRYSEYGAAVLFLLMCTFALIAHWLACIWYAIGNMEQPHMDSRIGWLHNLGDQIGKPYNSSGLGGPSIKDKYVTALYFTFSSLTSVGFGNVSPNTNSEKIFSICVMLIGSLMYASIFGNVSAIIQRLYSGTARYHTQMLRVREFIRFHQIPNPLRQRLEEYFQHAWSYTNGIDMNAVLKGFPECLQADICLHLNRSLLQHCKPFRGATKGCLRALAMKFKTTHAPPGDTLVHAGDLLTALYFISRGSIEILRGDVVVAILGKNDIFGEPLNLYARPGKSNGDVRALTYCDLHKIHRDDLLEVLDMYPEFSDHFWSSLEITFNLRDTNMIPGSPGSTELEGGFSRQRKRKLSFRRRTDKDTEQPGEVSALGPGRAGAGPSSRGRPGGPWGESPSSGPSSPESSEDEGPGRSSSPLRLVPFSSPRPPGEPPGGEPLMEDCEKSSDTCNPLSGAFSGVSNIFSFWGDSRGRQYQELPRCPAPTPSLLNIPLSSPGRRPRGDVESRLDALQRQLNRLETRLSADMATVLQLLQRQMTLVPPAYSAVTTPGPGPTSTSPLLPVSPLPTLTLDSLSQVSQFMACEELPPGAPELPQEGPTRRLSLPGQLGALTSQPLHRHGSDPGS
row,SMILES,"hERG current change (%, negative = inhibition) at 1uM [%]"
1,O=C(/C=C/c1cccc(O)c1)c1cccnc1,7.55
2,O=C(NCCN1CCOCC1)c1ccccc1N1C(=O)[C@@H]2Cc3c([nH]c4ccccc34)C(c3ccc(F)cc3)N2C1=O (some centres unmarked),14.1
3,CCCN(CC(=O)Nc1ccccc1C)C(=O)C1CCN(c2ncnc3sc(C)c(C)c23)CC1,-56.5
4,Cc1ccnn1-c1ccc(C(=O)NCC(c2ccco2)N2CCCC2)cc1 (centres unmarked),3.01
5,CCOC(=O)[C@H]1[C@H]2COc3cc(OC)ccc3[C@@H]2N2C(=O)CN(CC3CCCO3)C(=O)[C@@]12C (some centres unmarked),12.5
6,Cc1ccc(CNS(=O)(=O)NCc2ccccc2F)cc1,10.2
7,Clc1cccc2sc(-c3nnc(-c4ccccc4)o3)c(Cl)c12,-4.27
8,CC1=C(C(=O)OCc2ccccc2)C(c2ccc(Cl)cc2)NC(=O)N1CCCC(=O)O (centres unmarked),7.53
9,O=C(NCc1ccco1)c1cccc(F)c1,9.88
10,COc1ccc(NC(=O)CN(C)C(=O)Cc2coc3cc(C)c(C)cc23)cc1,11
11,CCOc1ccc2nc(Nc3nc4ccc(NC(C)=O)cc4s3)sc2c1,14.7
12,C/C(=N/NS(=O)(=O)c1ccc(Cl)cc1)c1ccc2c(c1)OCO2,-2.82
13,COCc1cc(=O)[nH]c(-c2ccccc2)n1,9.15
14,O=C(NC1CCN(S(=O)(=O)c2ccc(Cl)c(F)c2)CC1)c1cccnc1,2.43
15,[Br-].c1ccc(Cc2cc[n+](Cc3ccccn3)cc2)cc1,8.57
16,COCCn1cc(C(=O)NCCCOC(C)C)c2c3ccccc3n(C)c2c1=O,11.8
17,O=C(CSc1nnc(-c2c[nH]c3ccccc23)o1)N(Cc1ccccc1)c1ccc(F)cc1,15.3
18,NC(=S)C(c1ccccc1)c1ncc(C(F)(F)F)cc1Cl (centres unmarked),9.32
19,CCOc1cccc2sc(N(CCCN(C)C)C(=O)c3ccc(S(=O)(=O)N4CCCCCC4)cc3)nc12.Cl,12.8
20,COc1ccc(NC(=O)C2CCCN2S(=O)(=O)c2cccc3nsnc23)c(OC)c1 (centres unmarked),10.5
21,Cc1csc(SCC(=O)NC2CCCCC2)n1,3.4
22,O=C(NCc1ccco1)c1ccccc1-c1nc(-c2ccccc2)no1,-1.04
23,Nc1nc(N)nc(-c2ccccc2-c2nc(N)nc(N)n2)n1,7.34
